The record followed here is PubChem BioAssay AID1918935 (Molecular Pharmacology Branch, DTP, NCI, 2023).

Some entries of the source have several records that differ or are many. This is not the full list of results. There may be further records. Values given together are repeats (runs, samples, wells, individuals or studies). Brackets with × stand for listed records that agree.

The subject of the test is 324938-238-R-J1-PDC complex spheroid viability. In words: Anticancer human tumor 324938-238-R-J1-PDC patient-derived bladder carcinoma cell line growth inhibition. The settings on record: stronger effect = lower value. The source says:
Multicellular complex tumor spheroid response to LSD1 Inhibitor Iadademstat in combination with a variety of drugs and investigational agents in selected tumor cell lines
The current study was undertaken to assess response to LSD1 inhibitors in combination with standard-of-care drugs and investigational agents in solid tumor complex spheroid models as well as in the K-562 leukemia. Complex spheroids include a stromal component modeled by human endothelial cells (HUVEC) and fibroblasts modeled by human mesenchymal stem cells (MSCs). The concentration ranges selected for each drug and investigational agent were based upon clinically achievable concentrations if the clinical Cmax of the agent was known.
Compounds. The drugs and investigational agents used in this study are listed on Table 1. All of the agents used, including staurosporine (NSC755774) and gemcitabine (NSC613327), were obtained from the Developmental Therapeutics Program, NCI. FDA-approved anticancer drugs are available from the NCI at http://dtp.nci.nih.gov/branches/dscb/oncology_drugset_explanation.html. Drugs and investigational agents were >95% pure by proton nuclear magnetic resonance (NMR) and liquid chromatography/mass spectrometry (LC/MS). Stock solutions were prepared at 400x in DMSO, stored at -70 degrees C, and diluted in fresh medium prior to their use. The final concentration of DMSO in cell culture wells never exceeded 0.25% (v/v). The FDA-approved anticancer drug set is available from the Developmental Therapeutics Program at https://dtp.cancer.gov/organization/dscb/obtaining/available_plates.htm. All drugs and investigational agents were tested over a range starting from a high concentration at or near the clinical Cmax and decreasing in half-log increments. If the clinical Cmax for an agent had not been determined, the highest concentration tested was 10 microM.
Cell Lines. […]
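Also: spheroids also contain HUVEC and human MSCs and agents combined with iadademstat; spheroids exposed to agents for 7 days before readout.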

As for `NC1CC1c1ccc(-c2cccc(O)c2)cc1` (stereo not drawn), the viability, T/C is, setting by setting: (compound alone 0.316 µM) 78.6, 83, 76, 88.1, 77.2, 84.6, 75.7, 72.9, 78.3, 68.7, 73.3, 79.6, 62.2, 70.2, 91.8, 76.1, 81.2, 78.2, 77.7, 76.4, 75.9, 76.9, 80.8, 82.6%; (compound alone 1 µM) 68.2 (2×), 69.8, 78.3, 93.2, 73.8, 73.5, 64.9, 67.9, 70.3, 68.6, 67.6, 74.2, 67, 61.7, 71.6, 69.2, 72.1, 65.1, 67.4, 72.6, 70.1, 71.3, 75.3, 75.6%; (compound alone 10 µM) 65, 70.8, 72.9, 77.5, 76.6, 71, 78.3, 66.3, 68, 64.7, 51, 75.5, 60.5, 66.2, 80.2, 72, 67.6, 75.9, 67, 76.5, 59.6, 64.8, 66.1, 63.8, 86.8%.
